81 compounds from PubChem BioAssay AID588579 (National Center for Advancing Translational Sciences (NCATS), 2011) can be followed below.

Several values for one entry are separate records, joined by “and”; a condition that tells them apart may be missing. Identical values can stand only once. Among all 400,000 compounds or so, about 2,200 (0.55%) were called active. Not shown: some 1% with an inconclusive outcome. The call rests on the fitted dose curve; in most records, active means well fitted inhibition curve with a large enough effect; inconclusive means small, poorly fitted or top-dose-only effect, or another doubt; inactive means no such curve, though single readings can be large or run the other way. The entries are a selection whose mix differs from that of the whole data set. Some compounds were tested as several samples or in several runs, with calls that do not always agree.
On the % scale 0 is the no-effect control and ±100 the full control effect; potency means the concentration at half of the fitted maximal effect.

UniProt Q9UBT6, sequence (Q9UBT6 whole entry, looked up): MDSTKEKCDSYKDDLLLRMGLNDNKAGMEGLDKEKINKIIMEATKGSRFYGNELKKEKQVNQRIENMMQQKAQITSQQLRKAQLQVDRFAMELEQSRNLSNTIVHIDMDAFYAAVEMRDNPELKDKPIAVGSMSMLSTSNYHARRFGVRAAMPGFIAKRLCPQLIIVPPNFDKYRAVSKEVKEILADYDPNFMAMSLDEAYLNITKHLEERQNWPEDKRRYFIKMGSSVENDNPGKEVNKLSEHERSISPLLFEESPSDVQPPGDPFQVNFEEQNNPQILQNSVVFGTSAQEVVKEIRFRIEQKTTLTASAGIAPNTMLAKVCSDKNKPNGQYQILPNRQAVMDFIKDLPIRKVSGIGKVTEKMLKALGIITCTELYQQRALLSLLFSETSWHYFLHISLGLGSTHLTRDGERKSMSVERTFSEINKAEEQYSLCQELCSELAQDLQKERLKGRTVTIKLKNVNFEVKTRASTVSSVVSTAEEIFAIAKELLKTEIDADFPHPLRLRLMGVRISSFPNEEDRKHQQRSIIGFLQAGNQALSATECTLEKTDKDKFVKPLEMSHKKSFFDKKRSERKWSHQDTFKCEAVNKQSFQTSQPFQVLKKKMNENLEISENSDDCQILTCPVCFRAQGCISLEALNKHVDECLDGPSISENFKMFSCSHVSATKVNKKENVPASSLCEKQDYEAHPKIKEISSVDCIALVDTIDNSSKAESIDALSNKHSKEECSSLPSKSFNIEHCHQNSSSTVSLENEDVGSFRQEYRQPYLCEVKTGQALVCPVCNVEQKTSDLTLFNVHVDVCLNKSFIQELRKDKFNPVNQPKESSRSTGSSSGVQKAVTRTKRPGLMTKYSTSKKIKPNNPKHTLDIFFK

The test has as its target DNA polymerase kappa (Homo sapiens) (UniProt Q9UBT6). Briefly: qHTS for Inhibitors of Polymerase Kappa. Conditions: purified Pol kappa, fluorescent DNA synthesis assay, 10 min; series mostly up to 107 µM; activity, negative = inhibition: at the top concentration. In a few lines:
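50 nM final substrate added after 15 min RT preincubation of 10 nM Pol kappa with compound; fluorescence read at 0 and 10 min.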
In general terms: Quantitative high-throughput screening tests each substance at several concentrations.
As for `O=C(/C=C/c1ccco1)N(c1ccccn1)c1ccccn1`, the Potency is active: 31.6 µM.
On the same count and under the same terms, to `Nc1c(N=Nc2ccc([N+](=O)[O-])cc2)c(S(=O)(=O)O)cc2cc(S(=O)(=O)O)c(/C=C/c3ccccc3)c(O)c12` belongs active: 31.6 µM.
Take `C#Cc1ccc([C@@H]2C=C(C(=O)O)O[C@H](OCCCCO)C2)cc1`: the “activity, negative = inhibition” value was inactive: -38.8%.
Still for that read-out and setting: to `COC(=O)[C@H]1[C@@H]2C[C@@H]3c4[nH]c5ccccc5c4CCN3C[C@H]2CC[C@H]1O` belongs inactive: -7.59% [at 19.4 µM]; to `CCOC(=O)c1nc(Nc2ccc(C(=O)OC)cc2)c2ccccc2n1`, inactive: -7.27%.
With `CC(NC(=O)C1CCCN1C(=O)CN)C(=O)O` (stereo unspecified), the “activity, negative = inhibition” value was inactive: 10.1% [at 60.1 µM].
The same measure, in the same setting: to `CCc1cccc(C)c1NC(=O)C1CCN(c2nn3c(=O)cc(C)nc3s2)CC1` belongs inactive: 0.0163%; to `CO[C@]1(NC(=O)Cc2cccs2)C(=O)N2C(C(=O)O)=C(COC(N)=O)CS[C@H]21`, inactive: -0.978% [at 12 µM].
As to `O=C(Nc1ccc2nc(-c3ccco3)c(-c3ccco3)nc2c1)N1CCCC1`, the Potency is active: 31.6 µM.
Turning to `NC(=S)N=Nc1ccc(NN=C(N)N)cc1`, the “activity, negative = inhibition” value was inactive: -14.8%.
In the case of `Cc1cc(/C=C(/C#N)c2nc3ccccc3[nH]2)c(C)n1-c1cc(C(=O)O)cc(C(=O)O)c1`, the Potency is active: 39.8 µM.
For H-MNYLAFPRM-NH2, the “activity, negative = inhibition” value is inactive: 19.7% [at 60.1 µM].
As to `CCCCCCCCCCCCCCCC(=O)N[C@@H](COP(=O)(O)O)C(=O)O`, the activity, negative = inhibition is inactive: 4.68% [at 19.4 µM].
The same measure, in the same setting: for `C[C@@H]1C(c2ccc(F)cc2)=NN(c2ccc(Br)cc2)[C@H]1C(=O)N1CCOC1=O` the value was inactive: -10.4%; for `O=C(O)C1=CC(=C(c2ccc(O)c(C(=O)O)c2)c2ccc(O)c(C(=O)O)c2)C=CC1=O`, inactive: -98.1%.
Turning to `Cc1cc(C)nc(NS(=O)(=O)c2ccc(N)cc2)n1`, the Potency entry was “inactive”.
Same read-out and setting: for `CCc1cccc(CC)c1-n1c(SCC(=O)N2CCCc3ccccc32)nc(O)cc1=O` the value was active: 44.7 µM.
Take `CC(C)=CCc1c2c(c3occ(-c4ccc(O)c(O)c4)c(=O)c3c1O)C=CC(C)(C)O2`: the “activity, negative = inhibition” value is inactive: -13.5%.
For the compound `Cc1c(O)cc2c(c1O)C(=O)CC(c1ccc(O)cc1)O2` (stereo unspecified), the Potency was active: 14.1 µM.
Still for that read-out and setting: to `C/C=C\C=C/C(=O)Nc1cccc(C2=NOC3(C2)C[C@@H](C(N)=O)N(C(=O)/C=C/C=C\C)C3)c1` (stereo partly specified) belongs active: 20 µM.
For the compound `CN(c1ccc(Cl)cc1)S(=O)(=O)c1nnc(NC(=O)c2ccco2)s1`, the “activity, negative = inhibition” value is inactive: 6.27%.
For the compound `O=C(COC(=O)C12CC3CC(CC(C3)C1)C2)NCc1ccco1`, the “activity, negative = inhibition” value is inactive: -15.4%.
Same read-out and setting: to `COc1cc(C(CC(=O)N2CCCC2)c2c(OC)cc(OC)c3ccc(=O)oc23)cc(OC)c1OC` (stereo unspecified) belongs inactive: -25.3%; to `CC[C@]1(O)C[C@@H]2CN(CCc3c([nH]c4ccccc34)[C@@](C(=O)OC)(c3cc4c(cc3OC)N(C)C3[C@]45CCN4CC=C[C@](CC)(C45)[C@@H](OC(C)=O)[C@]3(O)C(=O)OC)C2)C1` (stereo partly specified), inactive: 3.37% [at 19.4 µM].
Consider `COc1cccc(-n2c(SCc3cc(=O)oc4cc(O)c(O)cc34)nc3ccccc3c2=O)c1`, for which the Potency is active: 31.6 µM.
Take `O=C(c1cc(O)c(O)c([N+](=O)[O-])c1)c1ccccc1F`: the “activity, negative = inhibition” value is inactive: -18.4% [at 60.1 µM].
`CCN(C(=O)C(C)N1C(=O)/C(=C/c2ccco2)SC1=S)C1CCS(=O)(=O)C1` (stereo unspecified): the Potency is active: 28.2 µM.
For the compound `Cc1nn(C)c2c1c(C(F)(F)F)cc(=O)n2C(C)C(=O)NCc1ccccc1` (stereo unspecified), the “activity, negative = inhibition” value was inactive: 27.5%.
Still for that read-out and setting: for `COc1ccccc1C1CC(=O)Oc2cc(C)c(Cl)cc21` (stereo unspecified) the value was inactive: -17.2%; for `COc1cc2c(cc1OC)C(C(C(=O)N(CCc1ccc(OC)c(OC)c1OC)CCc1ccc(OC)c(OC)c1OC)c1ccccc1)=NCC2` (stereo unspecified), inactive: -33.3%.
Turning to `CCc1nn2c(=O)cc(COc3ccc(/C=C4\C(=N)N5N=C(C)SC5=NC4=O)cc3)nc2s1`, the Potency was active: 79.4 µM.
Same read-out and setting: for `Cc1cc(=O)c2c(o1)C(=O)c1occc1C2=O` the value was active: 31.6 µM.
Take `C[N+](C)(CCCCCI)c1ccc(/C=C/c2nc3ccccc3s2)cc1`: the Potency is active: 44.7 µM.
Regarding `CC(C)(C)[C@@H](O)C(Cc1ccc(Cl)cc1)n1cncn1` (stereo partly specified), the “activity, negative = inhibition” value was inactive: 13.3% [at 60.1 µM].
Same read-out and setting: for `COc1ccccc1[C@H]1C(c2ccc(F)cc2)=NN(c2ccccc2)[C@@H]1CO` the value was inactive: -0.924%.
In the case of `Cn1nnc2c(C(N)=O)ncn2c1=O`, the Potency result was “inactive”.
For the compound `CCCCCCCCCCCCOCCOCCOCCOCCO`, the “activity, negative = inhibition” value is inactive: -11.9% [at 60.1 µM].
For `COc1cccc(O)c1O`, the Potency is active: 3.16 µM.
Consider `COC(=O)[C@H]1[C@H]2C[C@H]3c4[nH]c5ccccc5c4CCN3C[C@H]2CC[C@@H]1O`, for which the Potency entry was “inactive”.
With H-HCKFWW-OH, the “activity, negative = inhibition” value is inactive: 13.2% [at 60.1 µM].
Still for that read-out and setting: to `O[C@@H]1[C@@H]2c3cc4c(cc3CN3CCC(=C[C@@H]1O)[C@H]23)OCO4` belongs inactive: -6.58% [at 12 µM].
Still for that read-out and setting: to `O=C(CN1C(=O)COc2ccc(S(=O)(=O)N3CCCCCC3)cc21)NCc1ccc(F)cc1` belongs inactive: 2.06%.
In the case of `Cc1ccc(CNC(=O)c2ccc(-n3cccc3)cc2)cc1`, the Potency was active: 22.4 µM.
Regarding `O=C1CCN(CCc2ccccc2)CCN1[C@H](CO)Cc1ccccc1`, the “activity, negative = inhibition” value was inactive: -7.96%.
On the same count and under the same terms, to `COc1cc(/C=C2/SC(=O)NC2=O)ccc1Oc1ccc([N+](=O)[O-])cc1[N+](=O)[O-]` belongs inactive: 0%.
With `NCCc1ccc(O)c(O)c1`, the Potency entry is “inactive”.
On the same count and under the same terms, for `C[C@H](Cc1ccc(O)c(O)c1)[C@@H](C)Cc1ccc(O)c(O)c1` the value was active: 22.4 µM and active: 1.68 µM.
For `CC[C@H](C)[C@H](NC(=O)[C@H](Cc1ccc(O)cc1)NC(=O)[C@H](CCCNC(=N)N)NC(=O)[C@H](CCCNC(=N)N)NC(=O)[C@H](CC(C)C)NC(=O)[C@H](CC(=O)O)NC(=O)[C@H](C)NC(=O)[C@H](C)NC(=O)[C@H](Cc1ccc(O)cc1)NC(=O)[C@H](CCC(N)=O)NC(=O)[C@H](C)NC(=O)[C@H](CCSC)NC(=O)[C@H](CCC(N)=O)NC(=O)[C@H](CCC(=O)O)NC(=O)[C@@H]1CCCN1C(=O)[C@@H](NC(=O)[C@H](C)NC(=O)[C@H](CC(N)=O)NC(=O)[C@H](CC(=O)O)NC(=O)CNC(=O)[C@@H]1CCCN1C(=O)[C@H](Cc1ccc(O)cc1)NC(=O)[C@@H](NC(=O)[C@@H]1CCCN1C(=O)[C@H](CCC(=O)O)NC(=O)[C@H](CC(C)C)NC(=O)[C@@H]1CCCN1C(=O)[C@H](C)N)C(C)C)[C@@H](C)O)C(=O)N[C@@H](CC(N)=O)C(=O)N[C@@H](CCSC)C(=O)N[C@@H](CC(C)C)C(=O)N[C@H](C(=O)N[C@@H](CCCNC(=N)N)C(=O)N1CCC[C@H]1C(=O)N[C@@H](CCCNC(=N)N)C(=O)N[C@@H](Cc1ccc(O)cc1)C(N)=O)[C@@H](C)O`, the “activity, negative = inhibition” value was inactive: 18.2% [at 60.1 µM].
Same read-out and setting: for `c1nc(NC2CCCCCC2)c2[nH]cnc2n1` the value was inactive: 13.1%; for `CN1c2ccc(Cl)cc2-c2nc(SCC(=O)Nc3cc(F)ccc3F)ncc2S1(=O)=O`, inactive: 27.4%.
On to `C/C=C\C=C\C(=O)N1CC2(CC(c3cccc(NC(=O)CC)c3)=NO2)C[C@H]1C(N)=O` (stereo partly specified), for which the Potency was active: 79.4 µM.
Consider `Cc1oc2c(O)c(O)ccc2c(=O)c1-c1cnn(-c2ccccc2)c1`, for which the Potency is active: 39.8 µM.
On the same count and under the same terms, for `COc1cc(N)c(Cl)cc1C(=O)OCCN1CCCCC1` the value was “inactive”.
For the compound `CC1c2cccc(O)c2C(O)=C2C(=O)[C@]3(O)C(O)=C(C(N)=O)C(=O)C(N(C)C)C3C(O)C21` (stereo partly specified), the “activity, negative = inhibition” value is inactive: -8.02% [at 60.1 µM].
As to `CCOc1ccc(NC(=O)CN(C)S(=O)(=O)c2ccc(-c3ccc(=O)[nH]n3)s2)cc1`, the Potency is active: 89.1 µM.
Consider `CC1=NN(c2ccccc2)C(=O)C1/C=C1/NC(=S)NC1=O` (stereo unspecified), for which the “activity, negative = inhibition” value was inactive: -6.41%.
Still for that read-out and setting: for `CCOc1ccc(N/C(C)=C\C(=O)c2ccc3c(c2)OCCO3)cc1` the value was inactive: -2.98%.
On to `Cc1ccc(S(=O)(=O)OCC(=O)Nc2ccc(C(=O)O)c(O)c2)cc1`, for which the Potency was active: 25.1 µM.
Still for that read-out and setting: to `CCN(CC)c1ccc2nc3ccc(N)cc3[n+](-c3ccccc3)c2c1` belongs active: 22.4 µM; to `Cc1cccc(N(C)C(=S)Oc2ccc3ccccc3c2)c1`, “inactive”; to `CN(Cc1cnc2nc(N)nc(N)c2n1)c1ccc(C(=O)NC(CCC(=O)O)C(=O)O)cc1` (stereo unspecified), “inactive”.
For `c1ccc(-c2ccc(OCCN3CCCC3)cc2)cc1`, the “activity, negative = inhibition” value was inactive: 13.7% [at 60.1 µM].
With `CC(=O)OCC1=C(C(=O)O)N2C(=O)[C@@H](NC(=O)Cc3ccccc3)[C@H]2SC1`, the “activity, negative = inhibition” value was inactive: 0%.
Take `CCOc1ccc(Cc2nccc3cc(OCC)c(OCC)cc23)cc1OCC`: the activity, negative = inhibition is inactive: -19.5% [at 19.4 µM].
With `COc1ccc(C(CC(=O)N2CCCCC2)c2c(OC)cc(OC)c3ccc(=O)oc23)cc1` (stereo unspecified), the “activity, negative = inhibition” value is inactive: 1.71%.
On to `O=c1c(-c2ccc([N+](=O)[O-])cc2)coc2c(O)c(O)ccc12`, for which the Potency is active: 7.08 µM.
With `CC(N)=NCc1cccc(CN)c1`, the Potency result is “inactive”.
Regarding `CN1CCCN=C1/C=C/c1cccs1`, the “activity, negative = inhibition” value is inactive: -0.513%.
As to `Fc1ccccc1OCCCn1ccnc1`, the “activity, negative = inhibition” value is inactive: 24%.
Same read-out and setting: to `CC/C=C\C/C=C\C/C=C\C/C=C\C/C=C\C/C=C\CCC(=O)O` belongs inactive: -10.4% [at 19.4 µM] and inactive: -2.07% [at 19.4 µM].
As for `Cc1ccc2nc(/C(C#N)=C/c3ccc(-c4cccc(Cl)c4)o3)[nH]c2c1`, the Potency was active: 50.1 µM.
With `Cc1ccc(Sc2cncc3sc(C(N)=O)cc23)cc1`, the “activity, negative = inhibition” value was inactive: 16.9% [at 60.1 µM].
As to `O=C(O)c1cc(=O)c2ccccc2[nH]1`, the Potency result is “inactive”.
For `O=c1cc(-c2ccc(O)c(O)c2)oc2cccc(O)c12`, the Potency is active: 6.31 µM.
As to `O=C(CCCC[C@@H]1SC[C@H]2NC(=O)N[C@H]12)Nc1ccc(C(=O)O)cc1`, the “activity, negative = inhibition” value is inactive: 14.9% [at 60.1 µM].
Turning to `O=C1C[C@@H](c2ccc(O)c(O)c2)Oc2c1ccc(O[C@@H]1O[C@H](CO)[C@@H](O)[C@H](O)[C@H]1O)c2O`, the Potency is active: 2.67 µM.
Still for that read-out and setting: to `Oc1ccc(-c2csc(Nc3cccc4ccccc34)n2)cc1O` belongs active: 50.1 µM; to `COc1cc(/C=N/N2C(=O)CSC2=S)cc(Br)c1O`, active: 39.8 µM.
Same read-out and setting: to `O=C(CSc1nc2ccsc2c(=O)n1NC(=O)c1ccccc1)NCc1ccco1` belongs active: 79.4 µM; to `COc1cc2nc(N3CCCN(C)CC3)nc(NC3CCN(Cc4ccccc4)CC3)c2cc1OC`, “inactive”.
`O=S(=O)(c1ccc(Cl)cc1)N1CCN(c2nc(-c3cccs3)nc3ccccc23)CC1`: the Potency entry was “inactive”.
